# The other results are listed elsewhere or left out. The full chains were built here from the parent and the listed change. Inactive controls read about 0.05.
# B1: TEV protease; numbered along this chain (parent)
# chain: MGESLFKGPRDYNPISSSICHLTNESDGHTTSLYGIGFGPFIITNKHLFRRNNGTLVVQSLHGVFKVKDTTTLQQHLVDGRDMIIIRMPKDFPPFPQKLKFREPQREERICLVTTNFQTKSMSSMVSDTSCTFPSGDGIFWKHWIQTKDGQCGSPLVSTRDGFIVGIHSASNFTNTNNYFTSVPKNFMELLTNQEAQQWVSGWRLNADSVLWGGHKVFMVKPEEPFQPVKEATQL
# Variants of: B1
# Assay: raw area under fraction-flipped curve 0-4 h after induction (AUC4h, not background-subtracted), DNA-recorder readout of cleavage of the substrate (dimensionless); higher = more cleavage of the substrate by the protease variant
# Details: temperature: 34 °C; time window: 0-4 h after rhamnose induction
# Method: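 In vivo DNA recorder in E. coli TOP10(DE3) ΔrhaA at 34 °C. Each TEVp single-site mutant (parent TEVp 0) is paired with a single-site variant of the 7-mer TEVs (canonical ENLYFQ|S). The substrate sits between flexible linkers in a Bxb1-sfGFP-TEVs-SsrA fusion, so cleavage stabilises Bxb1 and speeds flipping of a recombination array, read by NGS. The value is the raw area under the fraction-flipped curve over 0-4 h after rhamnose induction (AUC4h), with ≥20 reads per time point. It is not background-subtracted; inactive controls average about 0.047.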
# 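Further: Bxb1 expression induced with 0.2% (w/v) L-rhamnose at OD600 near 0.5, cultures sampled hourly, flipped fraction per protease–substrate barcode pair counted by paired-end Illumina sequencing.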
variant,measurement,value
I86Q,area with substrate EALYFQS,0.049
same,area with substrate ECLYFQS,0.0356
same,area with substrate EDLYFQS,0.0366
same,area with substrate EELYFQS,0.0428
same,area with substrate EGLYFQS,0.0385
same,area with substrate EHLYFQS,0.0389
same,area with substrate EILYFQS,0.0488
same,area with substrate EKLYFQS,0.0266
same,area with substrate EMLYFQS,0.0579
same,area with substrate EQLYFQS,0.0515
same,area with substrate ERLYFQS,0.0379
same,area with substrate ESLYFQS,0.0419
same,area with substrate ETLYFQS,0.0373
same,area with substrate EWLYFQS,0.0349
K142L,area with substrate EALYFQS,0.132
same,area with substrate ECLYFQS,0.104
same,area with substrate EDLYFQS,0.137
same,area with substrate EFLYFQS,0.101
same,area with substrate EGLYFQS,0.116
same,area with substrate EHLYFQS,0.116
same,area with substrate EILYFQS,0.104
same,area with substrate EKLYFQS,0.104
same,area with substrate EMLYFQS,0.114
same,area with substrate EQLYFQS,0.124
same,area with substrate ERLYFQS,0.124
same,area with substrate ESLYFQS,0.0852
same,area with substrate EVLYFQS,0.104
same,area with substrate EYLYFQS,0.108
S171L,area with substrate EALYFQS,0.0604
same,area with substrate ECLYFQS,0.0543
same,area with substrate EDLYFQS,0.0558
same,area with substrate EELYFQS,0.0475
same,area with substrate EHLYFQS,0.0575
same,area with substrate EILYFQS,0.0202
same,area with substrate EKLYFQS,0.0578
same,area with substrate ELLYFQS,0.0586
same,area with substrate EMLYFQS,0.06
same,area with substrate EQLYFQS,0.0371
same,area with substrate ESLYFQS,0.0576
same,area with substrate ETLYFQS,0.0661
same,area with substrate EVLYFQS,0.0519
same,area with substrate EWLYFQS,0.0658
same,area with substrate EYLYFQS,0.0632
E223K,area with substrate EALYFQS,0.126
same,area with substrate ECLYFQS,0.0913
same,area with substrate EDLYFQS,0.121
same,area with substrate EELYFQS,0.105
same,area with substrate EGLYFQS,0.102
same,area with substrate EHLYFQS,0.103
same,area with substrate EILYFQS,0.0993
same,area with substrate EKLYFQS,0.108
same,area with substrate ELLYFQS,0.0812
same,area with substrate EMLYFQS,0.094
same,area with substrate EPLYFQS,0.101
same,area with substrate EQLYFQS,0.124
same,area with substrate ERLYFQS,0.0886
same,area with substrate ESLYFQS,0.0896
same,area with substrate EVLYFQS,0.0839
same,area with substrate EWLYFQS,0.094
same,area with substrate EYLYFQS,0.103
E108A,area with substrate EALYFQS,0.057
same,area with substrate ECLYFQS,0.0672
same,area with substrate EDLYFQS,0.0688
same,area with substrate EELYFQS,0.0585
same,area with substrate EFLYFQS,0.0555
same,area with substrate EGLYFQS,0.0627
same,area with substrate EHLYFQS,0.0633
same,area with substrate EKLYFQS,0.0445
same,area with substrate ELLYFQS,0.0659
same,area with substrate EMLYFQS,0.0437
same,area with substrate EPLYFQS,0.0614
same,area with substrate EQLYFQS,0.0707
same,area with substrate ERLYFQS,0.0698
same,area with substrate ESLYFQS,0.0633
same,area with substrate ETLYFQS,0.0737
same,area with substrate EVLYFQS,0.0561
same,area with substrate EYLYFQS,0.0638
S135R,area with substrate EALYFQS,0.0615
same,area with substrate ECLYFQS,0.0619
same,area with substrate EDLYFQS,0.088
same,area with substrate EGLYFQS,0.0634
same,area with substrate EHLYFQS,0.0841
same,area with substrate EILYFQS,0.064
same,area with substrate EKLYFQS,0.0533
same,area with substrate ELLYFQS,0.0848
same,area with substrate EMLYFQS,0.0721
same,area with substrate EPLYFQS,0.0775
same,area with substrate EQLYFQS,0.0054
same,area with substrate ERLYFQS,0.0731
same,area with substrate ESLYFQS,0.0661
same,area with substrate ETLYFQS,0.0718
same,area with substrate EYLYFQS,0.069
G37T,area with substrate EALYFQS,0.0959
same,area with substrate ECLYFQS,0.0557
same,area with substrate EDLYFQS,0.0282
same,area with substrate EELYFQS,0.0966
same,area with substrate EGLYFQS,0.0593
same,area with substrate EILYFQS,0.0699
same,area with substrate EKLYFQS,0.104
same,area with substrate ELLYFQS,0.0487
same,area with substrate EQLYFQS,0.0793
same,area with substrate ERLYFQS,0.0768
same,area with substrate ESLYFQS,0.0808
same,area with substrate ETLYFQS,0.106
same,area with substrate EVLYFQS,0.0954
V157S,area with substrate EALYFQS,0.08
same,area with substrate ECLYFQS,0.0673
same,area with substrate EDLYFQS,0.0964
same,area with substrate EFLYFQS,0.0553
same,area with substrate EGLYFQS,0.097
same,area with substrate EHLYFQS,0.077
same,area with substrate EKLYFQS,0.0602
same,area with substrate ELLYFQS,0.0574
same,area with substrate EQLYFQS,0.0965
same,area with substrate ERLYFQS,0.0691
same,area with substrate ESLYFQS,0.0748
same,area with substrate ETLYFQS,0.0751
same,area with substrate EVLYFQS,0.0545
same,area with substrate EYLYFQS,0.0696
V157D,area with substrate EALYFQS,0.051
same,area with substrate ECLYFQS,0.0557
same,area with substrate EDLYFQS,0.0638
same,area with substrate EELYFQS,0.0477
same,area with substrate EGLYFQS,0.0458
same,area with substrate EILYFQS,0.0416
same,area with substrate EKLYFQS,0.0452
same,area with substrate ELLYFQS,0.0302
same,area with substrate EMLYFQS,0.0438
same,area with substrate EPLYFQS,0.0567
same,area with substrate EQLYFQS,0.0444
same,area with substrate ERLYFQS,0.0368
same,area with substrate ESLYFQS,0.0451
same,area with substrate ETLYFQS,0.0505
same,area with substrate EVLYFQS,0.0502
same,area with substrate EWLYFQS,0.0659
same,area with substrate EYLYFQS,0.0515
I167A,area with substrate EALYFQS,0.0767
same,area with substrate ECLYFQS,0.059
same,area with substrate EDLYFQS,0.0898
same,area with substrate EELYFQS,0.0805
same,area with substrate ELLYFQS,0.0537
same,area with substrate EMLYFQS,0.0707
same,area with substrate ESLYFQS,0.0701
same,area with substrate EWLYFQS,0.0673
L190Y,area with substrate EALYFQS,0.0846
same,area with substrate ECLYFQS,0.0814
same,area with substrate EDLYFQS,0.0948
same,area with substrate EELYFQS,0.104
same,area with substrate EFLYFQS,0.106
same,area with substrate EGLYFQS,0.0824
same,area with substrate EILYFQS,0.0875
same,area with substrate EKLYFQS,0.078
same,area with substrate EMLYFQS,0.0785
same,area with substrate EQLYFQS,0.0981
same,area with substrate ERLYFQS,0.0793
same,area with substrate ESLYFQS,0.093
same,area with substrate EVLYFQS,0.0901
same,area with substrate EWLYFQS,0.0927
same,area with substrate EYLYFQS,0.082
S18A,area with substrate EALYFQS,0.114
same,area with substrate ECLYFQS,0.117
same,area with substrate EDLYFQS,0.0929
same,area with substrate EELYFQS,0.09
same,area with substrate EFLYFQS,0.101
same,area with substrate EHLYFQS,0.123
same,area with substrate EILYFQS,0.0933
same,area with substrate EKLYFQS,0.12
same,area with substrate ELLYFQS,0.0693
same,area with substrate EMLYFQS,0.108
same,area with substrate EPLYFQS,0.123
same,area with substrate EQLYFQS,0.0964
same,area with substrate ERLYFQS,0.113
same,area with substrate ESLYFQS,0.114
same,area with substrate EWLYFQS,0.104
